# Source: paper PMC4336329 (PLoS ONE, 2015)
# The campaign covered roughly 310,000 compounds. About 14,000 (4.5%) showed an effect of 50% or more. The effect is printed as a negative number. Some of the results follow.
# Molecular target: human ether-à-go-go-related gene (hERG) potassium channel (human, UniProt Q12809)
# Assay: primary screen, population patch clamp on CHO cells stably expressing hERG
# 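Note: peak tail current of the secondary pulse compared with the same well before compound.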
# Sequence of human ether-à-go-go-related gene (hERG) potassium channel (Q12809 whole entry, looked up): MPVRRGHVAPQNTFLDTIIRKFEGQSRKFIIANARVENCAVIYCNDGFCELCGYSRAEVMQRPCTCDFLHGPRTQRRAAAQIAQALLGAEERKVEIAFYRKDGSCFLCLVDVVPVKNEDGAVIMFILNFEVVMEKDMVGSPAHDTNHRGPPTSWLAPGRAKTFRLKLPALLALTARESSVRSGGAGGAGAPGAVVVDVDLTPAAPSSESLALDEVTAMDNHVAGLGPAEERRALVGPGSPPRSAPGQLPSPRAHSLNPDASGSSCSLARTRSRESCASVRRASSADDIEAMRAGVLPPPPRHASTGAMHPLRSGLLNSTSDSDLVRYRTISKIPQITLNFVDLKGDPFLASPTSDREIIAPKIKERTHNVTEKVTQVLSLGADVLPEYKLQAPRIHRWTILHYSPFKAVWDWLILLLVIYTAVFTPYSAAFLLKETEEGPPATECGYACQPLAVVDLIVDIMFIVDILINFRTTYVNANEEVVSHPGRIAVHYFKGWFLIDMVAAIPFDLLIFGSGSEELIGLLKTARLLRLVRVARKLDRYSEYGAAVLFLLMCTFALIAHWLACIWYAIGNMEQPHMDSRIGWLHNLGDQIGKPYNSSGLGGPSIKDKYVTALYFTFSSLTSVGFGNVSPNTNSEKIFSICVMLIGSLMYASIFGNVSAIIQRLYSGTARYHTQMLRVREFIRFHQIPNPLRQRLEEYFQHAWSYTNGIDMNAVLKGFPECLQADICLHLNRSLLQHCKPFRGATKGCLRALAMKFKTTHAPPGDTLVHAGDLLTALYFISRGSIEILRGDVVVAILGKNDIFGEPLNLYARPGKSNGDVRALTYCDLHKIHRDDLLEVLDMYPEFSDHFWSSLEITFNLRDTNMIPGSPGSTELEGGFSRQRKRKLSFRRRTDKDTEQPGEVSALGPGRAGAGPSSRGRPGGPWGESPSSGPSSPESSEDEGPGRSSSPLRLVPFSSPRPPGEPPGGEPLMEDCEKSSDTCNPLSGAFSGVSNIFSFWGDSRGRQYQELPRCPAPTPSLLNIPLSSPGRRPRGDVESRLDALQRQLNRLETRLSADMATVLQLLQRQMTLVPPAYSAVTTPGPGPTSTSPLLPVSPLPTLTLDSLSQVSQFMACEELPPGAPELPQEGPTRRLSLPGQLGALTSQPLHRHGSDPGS
row,Compound,"hERG current change (%, negative = inhibition) at 10uM"
1,CCC[C@H](CN[C@@H](CNC)[C@H](C)CC)NCCc1cc(C(F)(F)F)cc(C(F)(F)F)c1,-20.8%
2,CC(C)CC(=O)Nc1ccc(Nc2ccccc2)cc1,-25.3%
3,CCOC(=O)C1=C(N)Oc2cc(O)ccc2C1c1ccccc1 (stereo not shown),17.3%
4,CCc1cccc(NC(=S)N(CCOC)C2CCN(C(C)=O)CC2)c1,-8.26%
5,Cc1ccc(-c2cnn(-c3ccccc3)c2N)cc1,7.66%
6,C=CCNC(=O)c1onc(CSc2ccccc2C)c1C(=O)O,-14.3%
7,OC12CCCCC1C(c1ccccc1)NCC2 (stereo not shown),3.01%
8,COc1ccc(N2CCN(C(=O)COc3cccc4ccccc34)CC2)cc1,-28.3%
9,Cc1nc2ccc(NS(=O)(=O)c3ccccc3Cl)cc2s1,4.43%
10,COc1ccc(/C=N/Nc2nc(Nc3ccccc3)nc(N3CCCC3)n2)cc1[N+](=O)[O-],3.37%
11,Cn1nc(C2CC2)cc1NC(=O)CC(CC(=O)O)c1ccccc1 (stereo not shown),9.38%
12,COC(=O)c1[nH]c2ccc(C)cc2c1NC(=O)CN1CCCc2ccccc21,-1.47%
13,c1ccc(Cn2nnc3cnccc32)cc1,2.3%
14,C/C(=N\NC(=O)c1ccc(NS(=O)(=O)c2cccs2)cc1)c1ccc(Cl)cc1,-16.5%
15,Cc1ccc(Cl)cc1NC(=O)CCNC(=O)N1CC(=O)Nc2ccccc21,7.61%
16,COCCN1C(=O)C(=O)/C(=C(/O)c2ccc(S(=O)(=O)N3CCOCC3)cc2)C1c1ccc(O)c(OC)c1 (stereo not shown),17.1%
17,CN(CC(=O)Nc1cccc(F)c1)C(=O)c1ccc(-c2cccc(C(F)(F)F)c2)o1,12.3%
18,CC(=O)c1cccc(NC(=O)CNC(=O)c2sc3ccccc3c2Cl)c1,-1.2%
19,CCOC(=O)NN1C(=O)c2ccccc2NC1c1ccccc1O (stereo not shown),14.4%
20,Cc1ccc(C2=NS(=O)(=O)N(C)C(C(=O)NC(C)c3ccccc3)=C2)cc1 (stereo not shown),-4.18%
21,O=C(c1ccccc1)c1c[nH]cc1-c1ccccc1,0.144%
22,Cc1cccc(NC(=O)CSc2nnc([C@@H](N)Cc3ccccc3)o2)c1C.Cl,7.45%
23,Cc1cc(NC(=O)COC(=O)C2COc3ccccc3O2)no1 (stereo not shown),15.9%

row,Compound,"hERG current change (%, negative = inhibition) at 10uM"
1,CCCCn1c(N)c(N(Cc2ccccc2OC)C(=O)CCC(C)C)c(=O)[nH]c1=O,-24.7%
2,COc1ccc(C(=O)c2cnc(C(C)C)n2C)cc1,2.51%
3,Cc1c(C=O)c2ccccc2n1CC(=O)O,30.1%
4,CCCCC(=O)Nc1ccc(C(=O)NCCc2ccccc2)cc1,-9.95%
5,CC(=O)OCCNC(=O)c1cccnc1,6.8%
6,COC(=O)c1nnc(-c2ccccc2)c(-c2ccccc2)n1,1.41%
7,CCCOc1nc2ccccc2cc1/C=C/C(=O)O,11.8%
8,CC(OC(=O)CNC(=O)c1ccco1)C(=O)N(C)c1ccccc1 (stereo not shown),6.75%
9,CC(C)[C@H](NC(=O)c1ccccc1F)C(=O)Nc1nc2c(s1)CCCC2,-10.5%
10,CCOC(=O)Cc1csc(NC(=O)CN(C)S(=O)(=O)c2cccc3cccnc23)n1,-17.6%
11,O=C(CSc1nnc(-c2ccc(S(=O)(=O)N3CCOCC3)cc2)o1)c1ccccc1F,1.84%
12,Cc1noc(C)c1C(=O)OCC(=O)N1CCN(S(=O)(=O)c2ccc3ccccc3c2)CC1,-0.697%
13,COc1ccccc1NC(=O)c1ccccc1Nc1ccccc1,22.6%
14,COc1ccc(C(CNC(=O)CSc2ccccc2C)N(C)C)cc1 (stereo not shown),-3.49%
15,COC(=O)[C@H](C)NC(=O)NCc1ccco1,-1.49%
16,O=C(c1cc(COc2cccc3cnccc23)on1)N1CCCC(CCCO)C1 (stereo not shown),-41.2%
17,COCc1cc(C)nc(SCc2ccc(F)cc2)c1C#N,17.1%
18,CC(=O)Nc1ccc(S(=O)(=O)Nc2ccc3c(c2)OCCO3)cc1,25.9%
19,CCc1ccc(Nc2nnc(SCC(=O)Nc3sccc3C(N)=O)s2)cc1,-9.35%
20,Cc1cc2cc(CN(C(=O)C3CC3)C3CCCC3)c3nnnn3c2cc1C,-16.1%
21,c1ccc(CCNc2ncnc3scc(C4COc5ccccc5O4)c23)cc1 (stereo not shown),17.9%
22,CC1CCN(S(=O)(=O)c2cccc(C(N)=O)c2)CC1,-8.19%
23,CCCCOc1ccc(CSc2nncn2N)cc1,-1.59%

row,Compound,"hERG current change (%, negative = inhibition) at 10uM"
1,O=C(Nc1ccc(Cl)cc1)Nc1csc([N+](=O)[O-])c1,16.5%
2,S=C(NCc1ccco1)N1CCN(C/C=C/c2ccccc2)CC1,-56.2%
3,O=c1nc(/C=C/c2cc([N+](=O)[O-])ccc2Cl)cc(C(F)(F)F)[nH]1,18.8%
4,Cc1ccc(NC(=O)C2=C(O)c3sccc3N(C)S2(=O)=O)cc1,24.3%
5,COc1ccc(CCNC(=O)c2ccc(CN3CCC(Cc4ccccc4)CC3)cc2)cc1,-15.6%
6,Nc1nnc(-c2ccc(F)cc2)s1,-8.65%
7,COc1ccc(OC)c(NC(=S)NCc2cccs2)c1,-18.3%
8,COc1ccc(S(=O)(=O)NC2CCCCC2)cc1C(=O)N1CCCCC1,-8.48%
9,Cc1nnc(SCC(=O)NNC(=O)c2ccc(Br)cc2)n1C,48.2%
10,O=C1c2oc3ccc(F)cc3c(=O)c2C(c2cccc(O)c2)N1CCCN1CCOCC1 (stereo not shown),7.49%
11,Cc1cc2[nH]c(=O)c(=O)[nH]c2cc1S(=O)(=O)Nc1ccccc1F,1.78%
12,COc1cccc(C(=O)O/N=C(\N)c2ccccn2)c1,-2.49%
13,Cc1ccc(O)c(C(=O)c2cc(C#N)c(=O)n(-c3c(C)n(C)n(-c4ccccc4)c3=O)c2)c1,-18.6%
14,O=C(O)C1C2CCCCC2=C2CCCCC2C1C(=O)c1ccccc1 (stereo not shown),-2.74%
15,O=C(NCCc1ccc(Cl)cc1)c1ncn[nH]1,7.32%
16,Br.CCOCc1cn(CC(=O)c2ccc(Cl)cc2)c(C)nc1=N,5.78%
17,O=C(Nc1nnc(S(=O)(=O)N2CCOCC2)s1)c1ccc(F)cc1,-0.815%
18,COc1cccc(NC2=NC3(CCCCC3)N=C(N)N2)c1,22.8%
19,Cc1nn(CC(=O)Nc2ccncc2)c(C)c1[N+](=O)[O-],1.23%
20,CCOc1ccccc1N(CC(=O)NCC1CCCO1)C(=O)CNS(=O)(=O)c1ccccc1 (stereo not shown),7.35%
21,COc1ccc(OCCN2CCN(C(=O)c3ccc(OC)c(OC)c3)CC2)cc1,-58.8%
22,O=S(=O)(c1cccc(C(F)(F)F)c1)N1CCC(c2cc(-c3cccc4ccccc34)n[nH]2)CC1,11.4%
23,Nc1nc(CN2CCN(Cc3ccccc3)CC2)nc(Nc2ccccc2)n1,-66.2%

row,Compound,"hERG current change (%, negative = inhibition) at 10uM"
1,O=C(CN1CCN(c2ccccn2)CC1)Nc1cc(C(F)(F)F)ccc1Cl,-3.6%
2,O=C1C2CC=CCC2C(=O)N1CNc1ccccc1 (stereo not shown),14.7%
3,CCc1ccccc1NC(=O)Cn1nc(C(F)(F)F)cc1C1CC1,11.9%
4,Cc1csc(NC(=O)CCSCCc2ccccn2)n1,-9.48%
5,Cc1ccc(S(=O)(=O)NCC(=O)N(CC(=O)NC(C)(C)C)Cc2cccs2)cc1,2.83%
6,COCCCNC(=O)CCS(=O)(=O)Cc1ccc(C)cc1,-11.7%
7,CS(=O)(=O)O.NC(=Nc1ccccc1)NC(=O)c1nc(Cl)c(N)nc1N,-50%
8,CC(=O)Nc1c(O)c2cccc3c2n(c1=O)CCC3,15.6%
9,C=CCSc1nnc(-c2ccccc2NC(C)=O)c(=O)[nH]1,-3.84%
10,CN1CCC(=NNC(=O)CSc2ccc(Cl)cc2)CC1,9.84%
11,CCCCCCCOc1ccc(C2CC(=O)N(C)C2=O)cc1 (stereo not shown),4.77%
12,O=C(O)C(=O)O.OCCNCCSc1nc(C2CCCCC2)n(-c2ccccc2Cl)n1,-8.25%
13,Cc1cc(C)n(C2CCCCC2OC(=O)c2ccccc2F)n1 (stereo not shown),6.23%
14,COc1ccc(N2CCN(C(=O)CCc3nnc4ccc(N5CCC(C)CC5)nn34)CC2)cc1,-66.1%
15,CC1(C)SC[C@H](C(=O)Nc2cccc(Cl)c2)N1C=O,7.87%
16,S=C1N[C@H]2CCCC[C@@H]2N1,17.7%
17,C/C(Cn1nc([N+](=O)[O-])cc1C)=N\NC(=O)c1cccc(Br)c1,-20.5%
18,CC(Sc1nnc2ccccn12)C(=O)Nc1ccc(Cl)cn1 (stereo not shown),-1.5%
19,COc1cccc(/C=N\NS(=O)(=O)c2ccccc2)c1OC,12%
20,Cn1c(=O)n(CC(=O)NC2CCCCC2)c(=O)c2ccccc21,2.25%
21,Cc1ccccc1CC(=O)Nc1ccc(S(=O)(=O)N2CCN(C)CC2)cc1,-6.26%
22,COc1ccc(N(CC(=O)Nc2cc(Cl)ccc2C)S(=O)(=O)c2c(C)n[nH]c2C)cc1,4.8%
